Laboratory results reported in patent US20100048696A1, “AGRICULTURAL DISEASE CONTROL AGENT” (Idemitsu Kosan Co., Ltd., priority 2007, published 2010).

Test system: Clavibacter michiganense subsp. Nebraskense (ATCC27822)
Test: Basic test: cutting knife disinfection, ring rot pathogens
Format: cell-based
Conditions: cutting knife immersed 5 seconds

| Compound | Logarithm (number of ring rot pathogens) (50 times solution) | Logarithm (number of ring rot pathogens) (2 times solution) | Logarithm (number of ring rot pathogens) (5 times solution) | Logarithm (number of ring rot pathogens) (25 times solution) | Logarithm (number of ring rot pathogens) (100 times solution) | Logarithm (number of ring rot pathogens) (200 times solution) | Logarithm (number of ring rot pathogens) (500 times solution) |
| --- | --- | --- | --- | --- | --- | --- | --- |
| O=C(O)CC(O)C(=O)O (centres unmarked) [Malic acid, reference compound] | 9.3 cfu | – | – | – | – | – | – |
| O=C(O)CC(O)(CC(=O)O)C(=O)O [Citric acid] | 9.3 cfu | – | – | – | – | – | – |
| O=C(O)/C=C\C(=O)O [Maleic acid] | 3.6 cfu | 0.0 cfu | 0.0 cfu | 2.0 cfu | 4.2 cfu | 4.5 cfu | 5.0 cfu |
| O=C1C=CC(=O)O1 [Maleic anhydride] | 2.4 cfu | 0.0 cfu | 0.0 cfu | 1.5 cfu | 4.0 cfu | 4.3 cfu | 4.7 cfu |
| O=C1O[C@H]([C@@H](O)CO)C(O)=C1O [Ascorbic acid, reference compound] | 9.3 cfu | – | – | – | – | – | – |
